This sample is rich in variants without activity.

The values below come from the RNAGym collection of RNA variant scans (doi:10.1073/pnas.2313332121).

To fix the notation:
B1: TPR 5TU (parent)
chain: GGAUCUUCUCGAUCUAACAAAAAAGACAAAUCUGCCACAAAGCUUGAGAGCAUCUUCGGAUGCAGAGGCGGCAGCCUUCGGUGGCGCGAUAGCGCCAACGUUCUCAACUAUGACACGCAAAACGCGUGCUCCGUUGAAUGGAGUUUAUCAUG

In this data set the parent is B1. Description: polymerase ribozyme fitness, log enrichment relative to wild type (log ratio); higher = more active; in vitro selection for triplet polymerase activity. The essentials:
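For each subunit of a heterodimeric triplet polymerase ribozyme, a mutant library was built by PCR and transcribed, then taken through a single in vitro selection round in triplicate. Selection involved annealing to a biotinylated primer, the partner subunit and triplets, incubation frozen at −7 °C, gel excision of extended constructs, capture on streptavidin beads and RT-PCR. Genotypes were retained after Illumina sequencing of inputs and outputs only with ≥10 input reads and ≥1 read in each output. Fitness is defined as the logarithm of a genotype's enrichment relative to wild-type enrichment, using inverse-variance-weighted averages across replicates, with the logarithm taken to base 2.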
For the variant G74A A89U C93G, the “polymerase ribozyme fitness (log ratio)” value was at most -4.2. With G74A G83C G86A, the “polymerase ribozyme fitness (log ratio)” value was at most -4.2.

Turning to C76U A119C C123U, the “polymerase ribozyme fitness (log ratio)” value is 0.258. Consider C76G C96G C105U C131A, for which the “polymerase ribozyme fitness (log ratio)” value was at most -4.2. The figure for C75U C149A is at most -4.2. The same measure for G74C G86C A107C: at most -4.2; for G74U A120U: at most -4.2; for A73G U77A U82A U102A: at most -4.2. In the case of C72U C79U G83C C87U C95U A98G A107U G141C U145A A150G, the “polymerase ribozyme fitness (log ratio)” value is at most -4.2.

C75U G136A: the “polymerase ribozyme fitness (log ratio)” value came to 1.26. For the variant G71C A91U A110G G141C, the “polymerase ribozyme fitness (log ratio)” value was at most -4.2.

For C72U A73C C85A A110C, the “polymerase ribozyme fitness (log ratio)” value is at most -4.2. The figure for A73G G80U G94U U102C U127C is at most -4.2. The figure for C76U C79G C87A is at most -4.2; for C75U A107G A142G it is at most -4.2.

On to A73C C85A, for which the “polymerase ribozyme fitness (log ratio)” value is at most -4.2.

As to C75G C87A, the “polymerase ribozyme fitness (log ratio)” value is -3.89. The same measure for G71C C129A: at most -4.2; for C75G G86A C87A G92A U146G G152C: at most -4.2; for G71C U111G: at most -4.2.

Take C72A G94U C96U G133A: the “polymerase ribozyme fitness (log ratio)” value is at most -4.2. The same measure for A73C G80C A137G G140C U145A: at most -4.2; for G74C G100U A147U: at most -4.2. The same measure for A73U A98G G117U A119U G133U G136A C149G: at most -4.2; for G74U C79G: at most -4.2; for C72U A89G C95A: -1.39. Consider C75G A91U A106G G117C C131A U135C, for which the “polymerase ribozyme fitness (log ratio)” value is at most -4.2.

Regarding C72A C93U, the “polymerase ribozyme fitness (log ratio)” value was at most -4.2. In the case of A73G G92A C105A G133A, the “polymerase ribozyme fitness (log ratio)” value was at most -4.2.

For A73C U77C C93U, the “polymerase ribozyme fitness (log ratio)” value was at most -4.2. The same measure for C75U C85U A98G C103U U109A: at most -4.2; for C76U C87G G140U: at most -4.2. The same measure for G71U G88U G124C: at most -4.2. For C76A A91U C95U A107G G126A G133A, the “polymerase ribozyme fitness (log ratio)” value was at most -4.2. Regarding G74A C87A A119G, the “polymerase ribozyme fitness (log ratio)” value is at most -4.2.

For the variant A73G A122U G126U, the “polymerase ribozyme fitness (log ratio)” value was -0.405. Consider A73C C93A C99U C118U, for which the “polymerase ribozyme fitness (log ratio)” value was at most -4.2. The same measure for C75A A91G C93G A115C G140U: at most -4.2. The figure for A73U C85A A147C is -2.75; for A73C G80A G86A C87A it is at most -4.2. The same measure for C76A G136A: 0.971; for G71A U90G: at most -4.2. As to A73G C93A A97G G100U A106U A107G, the “polymerase ribozyme fitness (log ratio)” value is at most -4.2. The same measure for A73U G84U A142C G143A: at most -4.2; for A73C G141A: -3.8. The same measure for A73U G84A A150C: at most -4.2.

As for C76G U151G, the “polymerase ribozyme fitness (log ratio)” value was at most -4.2. C72G A89U U90C G92C C118U: the “polymerase ribozyme fitness (log ratio)” value is at most -4.2.

For the variant C72G G81U C85U A115U, the “polymerase ribozyme fitness (log ratio)” value is at most -4.2. The same measure for A73G A97C C99G: at most -4.2; for C72U U82A G86U C108G U135A U148C: at most -4.2; for C76G U101G A120U A150U: at most -4.2. As to G74C G83A C95U G136A, the “polymerase ribozyme fitness (log ratio)” value is at most -4.2. The figure for C76U C95U U135C C149A is at most -4.2; for A73G C85G it is -1.1; for C75A G84A it is at most -4.2. The same measure for C75A G84U: at most -4.2.

G74A G84A A107G: the “polymerase ribozyme fitness (log ratio)” value is at most -4.2.

For the variant C75G G86C C99U U104C A142U, the “polymerase ribozyme fitness (log ratio)” value is at most -4.2.

Take A73G C87A C95U U104C C105A U109G G141U: the “polymerase ribozyme fitness (log ratio)” value was at most -4.2.

Turning to C75A G86U A91U A122G G136A, the “polymerase ribozyme fitness (log ratio)” value was at most -4.2. The figure for C72G C118U is at most -4.2; for C75U C85U A119G G143A A147C it is -3.76; for A73G G92A C132U G141C it is at most -4.2. Turning to A73U C75G C85G A150U, the “polymerase ribozyme fitness (log ratio)” value is at most -4.2. The same measure for A73U C79G C87A C99G G117U: at most -4.2; for C75G G84U: at most -4.2. The figure for C76U C93U C105U is -0.938; for C72G G83C it is at most -4.2. The figure for G74U C93A is at most -4.2; for A73U A122G it is -0.995.

On to C76U C87A A91G A107U G126A U145A, for which the “polymerase ribozyme fitness (log ratio)” value was at most -4.2. The same measure for C76A C93G C132A: at most -4.2; for G74A U78G C103G A106G A110G C131U C149A: at most -4.2; for C76A G83A U134G: -3.45. The figure for A73G U82A G84A G92U C105G A150C is at most -4.2. The same measure for C75A A89U G143C: at most -4.2; for A73G G143A: -0.82; for C72U C85U U90C: at most -4.2.

In the case of A73G G83U C85G A106G C118G, the “polymerase ribozyme fitness (log ratio)” value is at most -4.2.

Consider A73U U77A G92A G112A, for which the “polymerase ribozyme fitness (log ratio)” value was at most -4.2. With C76A A137G, the “polymerase ribozyme fitness (log ratio)” value was -1.07. The same measure for C75U C85U A106C A122C U135A U145A: -3.69.
